# PubChem BioAssay AID588855 (National Center for Advancing Translational Sciences (NCATS), 2011)
# The campaign covered roughly 410,000 compounds. About 5,000 (1.2%) were called active. This list was built around the results that the source calls inconclusive (neither active nor inactive); the mix of calls is not that of the screen. Calls come from the whole dose curve; as a rule, active = well fitted inhibition curve with a large enough effect; inconclusive = small, poorly fitted or top-dose-only effect; inactive = no such curve, though single readings can be large or run the other way. Potencies of inconclusive entries are doubtful fits and often do not repeat.
# Experiment: qHTS for Inhibitors of TGF-b; note: nearly all actives have a fitted effect of over 65% in size
# Conditions: HepG2 CAGA-GFP TGF-b/SMAD3 reporter, GFP fluorescence, 18 h, TGF-beta stimulated, 500 pg/mL final; series mostly up to 46.1 µM; activity, negative = inhibition: at the top concentration
# In short: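 HEPG2 CAGA-GFP reporter cells (1000/well, DMEM with 1% FBS) received compounds, then recombinant TGF-beta at 500 pg/mL final for 18 hours at 37 degrees C. Per-cell GFP summed per well was normalised to unstimulated and stimulated DMSO controls before curve fitting.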
# % is set by controls: 0 for no effect and ±100 for the full control effect; potency is the fitted concentration of half-maximal effect; tags give direction and shape of the fitted curve.
Structure (SMILES),Potency,"activity, negative = inhibition"
Cc1cc(C)cc(NC(=O)C(Cc2ccccc2)NS(=O)(=O)c2ccc3c(c2)c(=O)n(C)c(=O)n3C)c1 (centres undefined),"inconclusive: 35.5 µM [inhibitor, single point]",–
O=C(N/N=C/c1ccc(O)c(O)c1)c1cc(-c2ccccc2)nc2ccccc12,–,inactive: -0.384%
COC(=O)c1ccc2nc(-c3cccc(Cl)c3)c(Cc3ccsc3)n2c1,"inconclusive: 1.58 µM [inhibitor, full curve, poor fit]",–
COc1ccc(C(=O)COC(=O)CNC(=O)c2ccc(OC)cc2)cc1,–,inactive: -10.2%
CC(Oc1ccc(F)cc1)C(=O)N1CCC(c2nc3ccccc3s2)CC1 (centres undefined),"inconclusive: 20 µM [inhibitor, single point]",–
O=C(Nc1ccc(S(=O)(=O)N2CCCC2)cc1)c1cnccn1,–,inactive: -2.37%
Cc1ccc(NC(=O)CCn2c(=O)c3cccn3c3ccccc32)cc1C,"inconclusive: 3.55 µM [inhibitor, single point]",–
O=C(c1ccc(Cl)cc1)C1CCN(CC(=O)N2CCCCC2)CC1,"inconclusive: 35.5 µM [inhibitor, single point]",–
CCC(=O)N1CCc2cc(Br)cc(S(=O)(=O)CCC(=O)NCCc3cccc(C)c3)c21,–,inactive: -1.47%
CC1(C)CC(=O)C=C(c2ccc(-c3ccc4[nH]ccc4c3)cc2)C1=O,"inconclusive: 35.5 µM [inhibitor, single point]",–
CCc1noc(C)c1C(=O)Nc1nc2c(C)cc(C)cc2s1,"inconclusive: 35.5 µM [inhibitor, single point]",–
CC(C)(C)OC(=O)N1CCC(c2c(C(=O)NCCN3CCc4ccccc4C3)cnn2-c2ccc(F)cc2F)CC1,"inconclusive: 35.5 µM [inhibitor, single point]",–
COCCNc1nc(NCc2cnc(C)cn2)c2sccc2n1,–,inactive: 37.3%
Cc1ccc(CN2CCC(CNC(=O)Nc3ccc(Cl)cc3)C2)cc1 (centres undefined),active: 12.6 µM,–
CC(C)(C)S(=O)N1Cc2cc(C(=O)N3CCc4ccccc4C3)nc(-c3cccc(-c4ccncc4)c3)c2[C@H]1CCO (some centres undefined),"inconclusive: 15.8 µM [inhibitor, single point]",–
O=C(Nc1cc(C(F)(F)F)ccc1N1CCCCC1)C1=COCCO1,"inconclusive: 35.5 µM [inhibitor, partial curve, poor fit]",–
CSCCC(NC(=O)COc1ccccc1)C(=O)N1CCCC(C)C1 (centres undefined),–,inactive: -2.12%
CC(C)(C)OC(=O)C[C@@H]1C/C=C\C[C@@H](CC(=O)N[C@H](CO)Cc2ccccc2)C(=O)N2CCC[C@@H]2COC1=O,–,inactive: 11.6%
COc1ccc(C2CC(c3cccs3)=NN2c2ccc(C=O)cc2)cc1 (centres undefined),"inconclusive: 12.6 µM [inhibitor, partial curve, poor fit]",–
CCOc1ccc(N2CC(c3nc4ccccc4n3CCCOc3ccccc3)CC2=O)cc1 (centres undefined),active: 11.2 µM,–
Cc1c(C(=O)NCC(c2ccc(Cl)cc2)N2CCOCC2)oc2ccccc12 (centres undefined),"inconclusive: 35.5 µM [inhibitor, single point]",–
CCOc1cc(-c2nnc(-c3ccco3)o2)cc(OCC)c1OCC,–,inactive: 3.07%

Structure (SMILES),Potency,"activity, negative = inhibition"
COc1cccc(NC(=S)N2CCCC2c2ccc(OC)c(OC)c2)c1 (centres undefined),–,inactive: 9.54%
C/C(CC(=O)Nc1ccccn1)=N\NC(=O)c1ccccc1O,–,inactive: -24.3%
N#CC1=C(N)C2=CCCC[C@H]2[C@H](c2cccc(F)c2)C1(C#N)C#N,"inconclusive: 0.126 µM [inhibitor, full curve, poor fit]",–
CC1(C)C2CCC(C2)C1C/C=N/NC(N)=S (centres undefined),"inconclusive: 6.31 µM [inhibitor, full curve, poor fit]",–
CCN1CCN(c2ccc(S(=O)(=O)N3CCOCC3)cc2NC(=O)/C=C/c2cccc(OC)c2OC)CC1,"inconclusive: 6.31 µM [inhibitor, single point]",–
COc1ccc(NC(=O)/C(Cl)=C(/Cl)S(=O)(=O)Cc2ccccc2)cn1,"inconclusive: 17.8 µM [inhibitor, single point]",–
CN1CCN(c2ccc(CNS(=O)(=O)Cc3cccc(C(F)(F)F)c3)cc2)CC1,"inconclusive: 12.6 µM [inhibitor, partial curve, poor fit]",–
CC1=C(C(=O)Nc2ccccc2)C(c2ccc[nH]2)n2ncnc2N1 (centres undefined),–,inactive: 11.8%
COc1ccc(C(=O)/C=C/C(=O)N(Cc2ccccc2)C(C(=O)NC2CCCCC2)c2ccncc2)c(O)c1 (centres undefined),"inconclusive: 35.5 µM [inhibitor, single point]",–
O=C(CCl)N1CCN(S(=O)(=O)c2ccc3c(c2)CCC3)CC1,"inconclusive: 22.4 µM [inhibitor, single point]",–
CN(CC(=O)Nc1ccc(Cl)c(Cl)c1)C1CCCCC1,"inconclusive: 7.94 µM [inhibitor, partial curve, poor fit]",–
CC(C)(C)C(=O)Nc1cccc(-c2nc3ccccc3c(=O)o2)c1,–,inactive: -12.2%
CC(NC(=O)COC(=O)c1cc2ccccc2cc1O)c1ccccc1 (centres undefined),"inconclusive: 6.31 µM [inhibitor, full curve, poor fit]",–
O=C(NCCO)C(=O)Nc1cc2c3c(c1)CC(=O)N3CCC2,–,inactive: -2.28%
OC1(C#Cc2c(-c3ccsc3)oc3ccc(N4CCOCC4)cc23)CCCCC1,"inconclusive: 31.6 µM [inhibitor, single point]",–
CCCCN(CC)CCNC(=O)c1cc2c(=O)[nH]c3ccccc3c2s1,–,inactive: -0.973%
CCOC(=O)C(=CNc1ccc2c(c1)CCN2C(C)=O)C(=O)OCC,–,inactive: 0%
CN(CCOc1ccccc1)c1ccc(S(=O)(=O)N2CCCCC2)cn1,"inconclusive: 35.5 µM [inhibitor, single point]",–
COCc1c(C(=O)N2CCN(CCOc3ccccc3)CC2)oc2ccccc12,"inconclusive: 22.4 µM [inhibitor, single point]",–
Cn1c(=O)c([N+](=O)[O-])c(NCCCn2ccnc2)c2ccccc21,–,inactive: -18.9%
COc1ccc(-c2c(-c3ccc(OCC(=O)NN)cc3O)n[nH]c2C(F)(F)F)cc1,"inconclusive: 31.6 µM [inhibitor, single point]",–
O=C(NCCCc1nc2ccccc2n1Cc1cccc(Cl)c1)C1CCCCC1,"inconclusive: 11.2 µM [inhibitor, partial curve, poor fit]",–
